Measurements: PubChem BioAssay (NCI)
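Tested at 5 concentrations; 48 h exposure; 96-well plates; endpoints linearly interpolated, else capped at highest concentration. GI50 = concentration required for 50% inhibition of growth.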 For part of its entries the source gives two or more results. Only these are listed. An entry can have further records. A record mostly stands for its own series of concentrations, which the source does not state; some values may only mark the edge of a range.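 TGI: concentration producing complete growth inhibition.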

What was measured:
Test in all cases: NCI-60 cell line screen, 48 h
A498 renal = test system: A498 renal
A549 NSCLC = test system: A549 NSCLC
ACHN renal = test system: ACHN renal
BT-549 breast = test system: BT-549 breast
CAKI-1 renal = test system: CAKI-1 renal
COLO 205 colon = test system: COLO 205 colon
EKVX NSCLC = test system: EKVX NSCLC
HCC-2998 colon = test system: HCC-2998 colon
HCT-15 colon = test system: HCT-15 colon
HL-60(TB) leukemia = test system: HL-60(TB) leukemia
HOP-62 NSCLC = test system: HOP-62 NSCLC
HOP-92 NSCLC = test system: HOP-92 NSCLC
HT29 colon = test system: HT29 colon
IGROV1 ovarian = test system: IGROV1 ovarian
K-562 leukemia = test system: K-562 leukemia
KM12 colon = test system: KM12 colon
M14 melanoma = test system: M14 melanoma
MCF7 breast = test system: MCF7 breast
MDA-MB-231 breast = test system: MDA-MB-231 breast
MOLT-4 leukemia = test system: MOLT-4 leukemia
NCI-H226 lung = test system: NCI-H226 lung
NCI-H23 lung = test system: NCI-H23 lung
NCI-H460 lung = test system: NCI-H460 lung
NCI-H522 lung = test system: NCI-H522 lung
OVCAR-3 ovarian = test system: OVCAR-3 ovarian
OVCAR-4 ovarian = test system: OVCAR-4 ovarian
OVCAR-5 ovarian = test system: OVCAR-5 ovarian
OVCAR-8 ovarian = test system: OVCAR-8 ovarian
RPMI-8226 leukemia = test system: RPMI-8226 leukemia
RXF 393 renal = test system: RXF 393 renal
SF-268 CNS = test system: SF-268 CNS
SF-295 CNS = test system: SF-295 CNS
SK-MEL-2 melanoma = test system: SK-MEL-2 melanoma
SK-MEL-28 melanoma = test system: SK-MEL-28 melanoma
SK-OV-3 ovarian = test system: SK-OV-3 ovarian
SN12C renal = test system: SN12C renal
SW-620 colon = test system: SW-620 colon
T-47D breast = test system: T-47D breast
TK-10 renal = test system: TK-10 renal
UACC-62 melanoma = test system: UACC-62 melanoma
UO-31 renal = test system: UO-31 renal
CCRF-CEM leukemia = test system: CCRF-CEM leukemia
HCT-116 colon = test system: HCT-116 colon
LOX IMVI melanoma = test system: LOX IMVI melanoma
MALME-3M melanoma = test system: MALME-3M melanoma
NCI/ADR-RES ovarian = test system: NCI/ADR-RES ovarian
SF-539 CNS = test system: SF-539 CNS
SK-MEL-5 melanoma = test system: SK-MEL-5 melanoma
SNB-75 CNS = test system: SNB-75 CNS
U251 CNS = test system: U251 CNS
UACC-257 melanoma = test system: UACC-257 melanoma

COC1=C2C[C@@H](C)C[C@@H](OC)[C@@H](O)[C@H](C)/C=C(\C)[C@@H](OC(N)=O)[C@H](OC)/C=C\C=C(/C)C(=O)NC(=CC1=O)C2=O
GI50 (A498 renal): 256 nM [mean of 4 tests] and 2.91 µM [mean of 8 tests]
TGI (A549 NSCLC): 9.93 µM, > 50 µM [1 test] and 18.6 µM [mean of 11 tests] and 4.41 µM [mean of 5 tests]
GI50 (ACHN renal): 1.38 nM, 45.4 nM [1 test] and 98.9 nM [mean of 13 tests]
TGI (ACHN renal): 47.7 nM, 5.93 µM [1 test] and 15.1 µM [mean of 13 tests]
GI50 (BT-549 breast): 47.4 nM [1 test] and 960 nM [mean of 10 tests]
TGI (BT-549 breast): 718 nM [1 test] and 18.9 µM [mean of 10 tests]
TGI (CAKI-1 renal): 8.32 µM, 3.1 µM [1 test] and 16.2 µM [mean of 11 tests] and 4.3 µM [mean of 5 tests]
TGI (COLO 205 colon): 37.5 µM, 522 nM, 1.35 µM
TGI (EKVX NSCLC): 6.37, 15.4, 23.5, 1.58 µM
GI50 (HCC-2998 colon): 9.69 nM [1 test] and 494 nM [mean of 13 tests] and 104 nM [mean of 3 tests]
TGI (HCC-2998 colon): 10.4 µM [mean of 13 tests] and 842 nM [mean of 3 tests]
TGI (HCT-15 colon): 5.83 µM, 260 nM [1 test] and 13 µM [mean of 13 tests] and 3.49 µM [mean of 5 tests]
TGI (HL-60(TB) leukemia): 35.4 µM, > 50 µM [1 test] and 428 nM [mean of 12 tests] and 78.1 nM [mean of 4 tests]
TGI (HOP-62 NSCLC): 7.33 µM [1 test] and 18.6 µM [mean of 13 tests] and 1.64 µM [mean of 4 tests]
TGI (HOP-92 NSCLC): 17.4 µM, 6.92 µM [1 test] and 749 nM [mean of 10 tests] and 782 nM [mean of 5 tests]
TGI (HT29 colon): 37.5 µM [1 test] and 4.83 µM [mean of 13 tests] and 1.16 µM [mean of 5 tests]
TGI (IGROV1 ovarian): > 50 µM [1 test] and 7.73 µM [mean of 11 tests] and 2.12 µM [mean of 5 tests]
TGI (K-562 leukemia): 37.5 µM [1 test] and 20.7 µM [mean of 12 tests] and 2.21 µM [mean of 4 tests]
TGI (KM12 colon): 8.19 µM, 5.24 µM [1 test] and 3.52 µM [mean of 12 tests] and 1.89 µM [mean of 5 tests]
TGI (M14 melanoma): 3.35 µM, < 5 nM [1 test] and 13.7 µM [mean of 13 tests]
TGI (MCF7 breast): 4.8 µM, > 50 µM, 20.9 µM, 3.32 µM
TGI (MDA-MB-231 breast): 356 nM, < 5 nM [1 test] and 3.33 µM [mean of 10 tests]
TGI (MOLT-4 leukemia): 56.3 nM, > 50 µM, 4.95 µM, 279 nM
TGI (NCI-H226 lung): 12.6 µM, 44.7 nM, 18.5 µM, 4.03 µM
TGI (NCI-H23 lung): 29.7 nM, < 5 nM, 9.57 µM, 797 nM
TGI (NCI-H460 lung): 4.23 µM, > 50 µM [1 test] and 18.9 µM [mean of 12 tests] and 1.83 µM [mean of 5 tests]
TGI (NCI-H522 lung): 44 nM, 2.23 µM, 1.96 µM, 241 nM
TGI (OVCAR-3 ovarian): 4.08 µM, 5.28 µM [1 test] and 2.44 µM [mean of 5 tests] and 8.55 µM [mean of 8 tests]
GI50 (OVCAR-4 ovarian): 6.03 µM [1 test] and 1.7 µM [mean of 13 tests] and 128 nM [mean of 2 tests]
TGI (OVCAR-4 ovarian): 14.2 µM [1 test] and 7.4 µM [mean of 13 tests] and 1.09 µM [mean of 2 tests]
TGI (OVCAR-5 ovarian): 6.65 µM, 10.9 µM [1 test] and 20.5 µM [mean of 13 tests] and 8.35 µM [mean of 5 tests]
TGI (OVCAR-8 ovarian): 10.9, 49.6, 9.01, 3.28 µM
TGI (RPMI-8226 leukemia): 31.6 µM, 89.3 nM, 11 µM, 2.46 µM
TGI (RXF 393 renal): 5.93 µM and 457 nM
TGI (SF-268 CNS): 6.68 µM, 8.27 µM [1 test] and 14.6 µM [mean of 12 tests] and 3.57 µM [mean of 5 tests]
TGI (SF-295 CNS): 14.1 µM, 16.1 µM [1 test] and 24 µM [mean of 11 tests] and 4.46 µM [mean of 4 tests]
TGI (SK-MEL-2 melanoma): 76.8 nM, > 50 µM [1 test] and 9.69 µM [mean of 10 tests] and 2 µM [mean of 5 tests]
TGI (SK-MEL-28 melanoma): 35.8 nM, 37.5 µM [1 test] and 3.5 µM [mean of 5 tests] and 15.3 µM [mean of 9 tests]
GI50 (SK-OV-3 ovarian): 6.89 µM [1 test] and 372 nM [mean of 10 tests]
TGI (SN12C renal): 325 nM, < 5 nM, 12.4 µM, 1.24 µM
TGI (SW-620 colon): 14, 12.3, 9, 1.99 µM
GI50 (T-47D breast): 5.77 nM, 6.22 µM [1 test] and 21.4 nM [mean of 10 tests]
TGI (T-47D breast): 37.5 µM [1 test] and 1.97 µM [mean of 10 tests]
TGI (TK-10 renal): 5.08 µM, < 5 nM [1 test] and 14.4 µM [mean of 13 tests]
TGI (UACC-62 melanoma): 2.65 µM, 35.6 nM, 7.65 µM, 3.11 µM
TGI (UO-31 renal): 5.83 µM, > 50 µM [1 test] and 7.69 µM [mean of 13 tests] and 4.14 µM [mean of 5 tests]

C=Cc1cc(OC)c2c(c1)c(=O)oc1c2cc(OC)c2c(O)ccc(C3OC(C)C(O)C(C)(O)C3O)c21 (stereo unspecified)
TGI (A498 renal): 3.79 nM and 103 nM
TGI (CCRF-CEM leukemia): 0.597 nM and 276 nM
GI50 (COLO 205 colon): 1.82 nM [1 test] and 56.9 nM [mean of 3 tests]
TGI (EKVX NSCLC): 4.46 nM and 145 nM
TGI (HCC-2998 colon): 7.16 nM and 129 nM
TGI (HCT-116 colon): 7.56 nM and 293 nM
TGI (HOP-62 NSCLC): 0.59 nM and 38 nM
GI50 (KM12 colon): 0.618 nM [1 test] and 39.1 nM [mean of 3 tests]
TGI (KM12 colon): 2.89 nM [1 test] and 493 nM [mean of 3 tests]
TGI (LOX IMVI melanoma): 1.72 nM and 233 nM
TGI (MALME-3M melanoma): 3.46 nM and 157 nM
TGI (MOLT-4 leukemia): 1.21 nM and 225 nM
GI50 (NCI-H226 lung): 1.58 nM [1 test] and 277 nM [mean of 3 tests]
TGI (NCI-H226 lung): 5.19 nM [1 test] and 435 nM [mean of 3 tests]
TGI (NCI-H23 lung): 0.758 nM and 85.9 nM
GI50 (NCI-H522 lung): 0.336 nM [1 test] and 48.5 nM [mean of 3 tests]
TGI (NCI-H522 lung): 2.2 nM [1 test] and 62.8 nM [mean of 3 tests]
TGI (NCI/ADR-RES ovarian): 3.24 nM and 110 nM
TGI (OVCAR-3 ovarian): 6.46 nM and 150 nM
TGI (OVCAR-4 ovarian): 8.2 nM and 232 nM
TGI (OVCAR-5 ovarian): 1.44 nM and 250 nM
TGI (OVCAR-8 ovarian): 7.46 nM and 108 nM
TGI (RPMI-8226 leukemia): 3.18 nM and 67.5 nM
TGI (RXF 393 renal): 0.678 nM and 24.9 nM
TGI (SF-268 CNS): 1.48 nM and 97.6 nM
TGI (SF-539 CNS): 0.433 nM and 63.7 nM
TGI (SK-MEL-2 melanoma): 2.65 nM and 64.9 nM
GI50 (SK-MEL-28 melanoma): 1.2 nM [1 test] and 66.5 nM [mean of 2 tests]
TGI (SK-MEL-28 melanoma): 2.76 nM [1 test] and 195 nM [mean of 2 tests]
GI50 (SK-MEL-5 melanoma): 1.24 nM [1 test] and 44.8 nM [mean of 5 tests]
TGI (SK-MEL-5 melanoma): 4.1 nM [1 test] and 69.8 nM [mean of 5 tests]
TGI (SK-OV-3 ovarian): 9.72 nM and 388 nM
TGI (SN12C renal): 6.15 nM and 128 nM
TGI (SNB-75 CNS): 2.04 nM and 52.2 nM
TGI (SW-620 colon): 8.39 nM and 764 nM
TGI (U251 CNS): 7.77 nM and 293 nM
GI50 (UACC-257 melanoma): 2.04 nM [1 test] and 30.4 nM [mean of 3 tests]
TGI (UACC-257 melanoma): 7.14 nM [1 test] and 73.1 nM [mean of 3 tests]
TGI (UACC-62 melanoma): 2.96 nM and 61.7 nM
TGI (UO-31 renal): 5.68 nM and 119 nM
